This note sets out measurements from PMC12136788.

B1: chr9:114377124:114377225:-|CDS|ENSG00000106948|msi1|total|mutant (ssRNA)
RNA: GGGAGUUCUACAGUCCGACGAUCUCCGUUGAACUCAGCCCGGCAAGGUCCUGGAGCAGUGGGACAGUGAGCCUCGACCACCCCCGUGACAGCCUUGAUUCUACCUGGGAAGGAGAGACCGAUGGCCCCCAGCCCACUGCCCUGCAACAGAGGAUUGAGCAUCA
B2: chr14:100278170:100278208:+|3pUTR|ENSG00000100811|msi1_unk|total|mutant (ssRNA)
RNA: GGGAGUUCUACAGUCCGACGAUCGCUAUCUUAAUUUUGGUUGUAUUCUUUGAUGUUAACACAUUUUGUAUAAUUGUAUCGUACCGCUGUAUUGAAUCAUGCCGUAUCAAAUAUCCGAUGUGAUUUAACCGUGUUAAUCAAUUUCAACAGAGGAUUGAGCAUCA
B3: chr3:115809552:115809653:-|3pUTR|ENSG00000185565|unk|total|mutant (ssRNA)
RNA: GGGAGUUCUACAGUCCGACGAUCCUCCCUCACCUCUCCUCACCUCCACCCCCUCCCCAGAGCACCCGUCAUGCCGCAAAUGCCCGGAAGUGCCAUUUUCAUUUUCUCCACUGUGCGUGUGUGCUCAAGUCUUUCGCUCUCACGCAACAGAGGAUUGAGCAUCA
B4: chr14:60975662:60975785:-|CDS|ENSG00000126814|unk|total|mutant (ssRNA)
RNA: GGGAGUUCUACAGUCCGACGAUCGAAAGAAAACCCUCUGUGCACGUUGUCAUGAACUUGCCAGCAAAAGCUACCGAGUUUCUCCGUGCUUUCAAGUGGCUUUCCGAUGGGCAGCCAUGCAGCAGUGAGUUCCUUCCCACCGUGCAACAGAGGAUUGAGCAUCA
B5: ENSG00000197063:stop:overlap|stop_codon|ENSG00000197063|stop_codon|NA|stop_codon (ssRNA)
RNA: GGGAGUUCUACAGUCCGACGAUCGCAAGGUGGCCGCCACCAGCGUCAUCACAAUAGUAAAGUCCAAGACGGAUGCCCGAUCGUAGGGACGCGCGUCUGCCCAGGCGGGUCUUUGCGGGGCCACUAGGCACAUGGCGAAUUUGGCAACAGAGGAUUGAGCAUCA
B6: chr6:33573622:33573723:-|3pUTR|ENSG00000030110|unk|FALSE|unique (ssRNA)
RNA: GGGAGUUCUACAGUCCGACGAUCCGAAGUCUUUGCCUUCUCUGUUCCCUUGCAGGGGUCCCCCCUCAAGAGUACAGAAGCUUUAGCAAGUGUGCACUCCAGCUUCGGAGGGCCCCUGCGUGGGGGCCAGUCAGGCUGCAGAGGCAACAGAGGAUUGAGCAUCA
B7: chr7:66987971:66988072:-|3pUTR|ENSG00000126524|unk|FALSE|unique (ssRNA)
RNA: GGGAGUUCUACAGUCCGACGAUCAAGUUACUUGAGGCAGCUCUUGUGGGUGAAAAGUUAUUUGUACAGUAGAGUAAGAUUAUUAGGGGUAUGUCUAUACAACAAAAGGGGGGGUCUUUCCUAAAAAAGAAAACAUAUGAUGCUCAACAGAGGAUUGAGCAUCA
B8: chr12:71585298:71585408:+|3pUTR|ENSG00000139292|unk|total|mutant (ssRNA)
RNA: GGGAGUUCUACAGUCCGACGAUCUUGUUAACUCACUCAUAUUGAGAUCAUUUUCCGAGAUACCAGGUUUUAUGUAUCAGCACCCGAUGGUUCCACCCUCAUGGGAUAAAACUGCUUACAAGUAUUUUGAAAGAAAAACUGACCCAACAGAGGAUUGAGCAUCA
B9: chr19:811491:811550:+|3pUTR|ENSG00000011304|msi1_unk|total|mutant (ssRNA)
RNA: GGGAGUUCUACAGUCCGACGAUCCCGCAAUAUUUCCAGUUGACCAAAUAUUCUAAUCUUUUUUCAUUUAUAUGCAAAAGAAACCGUUUUAAGUAACUUUUUACCGCAAGAUGAUACAAUGGUAUGAGUGUAAUCUAAACUUCCCAACAGAGGAUUGAGCAUCA
B10: ENSG00000198589:be:win_4301|CDS|ENSG00000198589|bound_else_gene|NA|bound_elsewhere_windowed (ssRNA)
RNA: GGGAGUUCUACAGUCCGACGAUCUGUCAUCUGGAGGAAUUUUGCGGCAGUGUCUCCGACUAGUUUGUGCAGUCGCAGUAAGGAAUUGCUUGGAGUGUCAACAGCAUUCACAACUGAAAACUAGGGGAGAUAAAGCCUUGAAACCAACAGAGGAUUGAGCAUCA
B11: chr2:55866929:55867030:-|3pUTR|ENSG00000115380|msi1|total|mutant (ssRNA)
RNA: GGGAGUUCUACAGUCCGACGAUCAUUUAAGUCAGCCAAAGAAUAUUGUUACCUUAAAGCACUAUUUUAUUUACCGAUAUAUCCCGUGCAUCUACAUCUCUAUACUGUACACUCACCCAUAAUUCAAACAAUUACACCAUGGUACAACAGAGGAUUGAGCAUCA
B12: chr20:17613772:17613873:-|3pUTR|ENSG00000125844|unk|total|mutant (ssRNA)
RNA: GGGAGUUCUACAGUCCGACGAUCAGCCCCGUGGGUGUGUGGGAGGCCGGGCGCUCUGGGGUCUGUCUGUCAGUGCAAUCGUUCCGUGUUUUUUCAGUGGGGCGGGGCGGGAAGCGGGUGGGACCGGGCAGCCAGUUCUCAAAGCAACAGAGGAUUGAGCAUCA
B13: chr8:129748195:129748500:-|three_prime_utr|ENSG00000147697|control|control|control (ssRNA)
RNA: GGGAGUUCUACAGUCCGACGAUCUCCAGAGAUGCUGGCCCUCGCCCAGUCUAUGCUGUGAGUGUCCUUAUGGGUGCAAGAGAUAGGGCUGUGCCUCUCUGCGUUUCCAGGUGGAGUAGAGACAGUAAUGGGUAGAGACUUUAGCAACAGAGGAUUGAGCAUCA
B14: chr1:156668797:156668898:-|3pUTR|ENSG00000132688|msi1|FALSE|bound_elsewhere (ssRNA)
RNA: GGGAGUUCUACAGUCCGACGAUCUGACGGCACUCCCAUGUGCUGACUCCCCCCAUCCCUGCCACGCUGUGGCCCUGCCUGGCUAGUCCCUGCCUGAAUAAAGUAAUGCCUCCGCUUCAAAGUCUGGACUCUUCUUUCCCCCACCAACAGAGGAUUGAGCAUCA
B15: chr14:88572724:88572825:+|CDS|ENSG00000100722|unk|FALSE|unique (ssRNA)
RNA: GGGAGUUCUACAGUCCGACGAUCGUGACACUUACAUAUGGUUCUUCUCGCCCUUCUAUUGAAAUUUAUCGACCACCUGCAAGUAGAAAUGCAGAUAGUGGUGUUCAUUUAAACAGGUUGCAAUUUCAACAGCAGCAGAAUAGUCAACAGAGGAUUGAGCAUCA
B16: ENSG00000124766:be:win_3551|3pUTR|ENSG00000124766|bound_else_gene|NA|bound_elsewhere_windowed (ssRNA)
RNA: GGGAGUUCUACAGUCCGACGAUCCGUUUAAACCACUGGAUCUAUCUAAAUGCCGAUUUGAGUUCGCGACACUAUGUACUGCGUUUUUCAUUCUUGUAUUUGACUAUUUAAUCCUUUCUACUUGUCGCUAAAUAUAAUUGUUUUCAACAGAGGAUUGAGCAUCA
B17: chr12:30637093:30637194:-|CDS|ENSG00000133704|unk|FALSE|bound_elsewhere (ssRNA)
RNA: GGGAGUUCUACAGUCCGACGAUCUGUCUACAUUUUUUUUUUCUUCAAAAUUUGCAGGCAUCAUGACCGGAAGAUGUGUAUAAUAGGACUGAGUAUCCUUUUGGAAUUGCAAAAUCGACCUCCUGCAGUAGAUGCUGUGGUGGGCAACAGAGGAUUGAGCAUCA
B18: chr10:92030311:92030412:+|3pUTR|ENSG00000095564|unk|FALSE|unique (ssRNA)
RNA: GGGAGUUCUACAGUCCGACGAUCAUAUAAGAUUGAAACUGUAAAAUAUAUGCAACUGUGUGUUAUUUGUAGGAAAUGGUCACUAGAAAGAGCAAAAGAUUAUUCAGGUAUACAGGUUUUUUUUCAUUGUUUAGGAUUUUAACUCAACAGAGGAUUGAGCAUCA
B19: chr1:40238196:40238297:+|CDS|ENSG00000117000|msi1|total|mutant (ssRNA)
RNA: GGGAGUUCUACAGUCCGACGAUCCGGUAUUCCCCAUUUCAGUGUCAUAUUUGCCAAAGGUCAUUUACAAGAAAAACACACCUCCGGAUUCAUUAUAAAAAUAAACAUCAAAUUGGCAGUGACAGAGCAACUCACAAACUAUUACAACAGAGGAUUGAGCAUCA
B20: chr5:138511037:138511180:-|CDS|ENSG00000120705|unk|FALSE|unique (ssRNA)
RNA: GGGAGUUCUACAGUCCGACGAUCCACGGGCAAGUACUGUUUUGGCGUUGAAGAUACACUAAAGGCUUUGGAAAUGGGAGCUGUAGAAAUUCUAAUAGUCUAUGAAAAUCUGGAUAUAAUGAGAUAUGUUCUUCAUUGCCAAGGCAACAGAGGAUUGAGCAUCA
B21: chr10:110602053:110602155:+|CDS|ENSG00000108055|unk|FALSE|unique (ssRNA)
RNA: GGGAGUUCUACAGUCCGACGAUCCAGUUUGUAAAUUUCUCCGAGCAGAAAGAAAAGUUAAUAAAGCGUCAAGAAGAGUUAGAUAGGGGUUACAAAUCAAUCAUGGAACUGAUGAAUGUACUUGAACUUCGGAAAUAUGAAGCUCAACAGAGGAUUGAGCAUCA
B22: chr12:132722103:132722204:+|3pUTR|ENSG00000247077|msi1|FALSE|unique (ssRNA)
RNA: GGGAGUUCUACAGUCCGACGAUCGCUUCGCCUUUGACCUUCAUGCUGGUCUCGGCUGAGGUGACACGCUAGUGACAGCCCAAUAGGGGGUUACCCUUAUUGAGUAAAAUACUUCAGAUUGACAGCUCAAUCUUAGUUUGCCUCCAACAGAGGAUUGAGCAUCA

The list shows a part of the results.

The assay deals with MSI1 full-length (mouse, UniProt Q61474 1-362). The assay can be described thus: nsRBNS (natural sequence RNA bind-n-seq); RBNS binding buffer (assumed for nsRBNS): 25 mM Tris pH 7.5, 150 mM KCl, 3 mM MgCl2, 0.01% Triton X-100, 500 ug/ml BSA, 20 U/ml SUPERase-In, 4 C; UNK is unkempt and MSI1 is Musashi-1; names of the RNAs are library labels; protein concentration not given here; high values mean tight binding.
Chain of UniProt Q61474 (Q61474 whole entry): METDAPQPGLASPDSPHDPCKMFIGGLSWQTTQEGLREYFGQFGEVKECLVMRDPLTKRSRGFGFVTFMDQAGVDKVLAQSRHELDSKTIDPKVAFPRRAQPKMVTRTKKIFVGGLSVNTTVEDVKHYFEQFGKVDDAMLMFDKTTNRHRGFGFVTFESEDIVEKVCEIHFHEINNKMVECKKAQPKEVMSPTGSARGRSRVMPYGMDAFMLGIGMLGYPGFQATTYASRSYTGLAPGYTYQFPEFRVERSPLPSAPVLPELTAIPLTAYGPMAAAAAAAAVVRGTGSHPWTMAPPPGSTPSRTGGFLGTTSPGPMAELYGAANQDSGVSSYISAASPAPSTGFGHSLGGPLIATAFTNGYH
In the case of B1, the binding signal came out at 0.536 enrichment R. Under B2 stands 0.455 enrichment R; under B3, 1.13 enrichment R. Consider B4, for which the binding signal came to 0.346 enrichment R.

Regarding B5, the binding signal was found to be 0.565 enrichment R. With B6, the binding signal was found to be 0.298 enrichment R. Then B7, with 1.78 enrichment R; and B8, with 0.415 enrichment R; and B9, with 0.482 enrichment R. For B10, the binding signal was determined as 0.309 enrichment R. Then B11, with 1.52 enrichment R. In turn, B12 showed a binding signal of 0.811 enrichment R.

As for B13, the binding signal is 0.724 enrichment R. As for B14, the binding signal was determined as 1.01 enrichment R. Then B15, with 1.17 enrichment R; and B16, with 1.07 enrichment R; and B17, with 0.324 enrichment R. B18 had a binding signal of 6.54 enrichment R. Under B19 stands 1.15 enrichment R. The molecule B20 displayed a binding signal of 1.09 enrichment R. Then B21, with 7.98 enrichment R.

In turn, B22 came in with a binding signal of 0.316 enrichment R.
